This passage reports inhibition results from ChEMBL document CHEMBL5606460, “ASAP - DENV-2 NS2B-NS3 protease fluorescence single point” (2024).

The test has as its target Genome polyprotein (dengue virus type 2) (UniProt P29990).
Where [1] appears, read: Thailand/16681/1984, Concentration 25.0 uM, Number of replicates 1.0.

About 110 (5.5%) of roughly 2,000 compounds showed an effect of 50% or more. This is one part of the list.

In general, inhibition refers to the relative decrease from the control value, in per cent. With `c1ccc2c(C[C@H]3COCCN3Cc3n[nH]c4ccccc34)c[nH]c2c1`, the inhibition came out at 2.4% (Thailand/16681/1984, Concentration 49.5 uM, Number of replicates 2.0, Standard deviation 1.3824178955627795 %); 5.55% (Thailand/16681/1984, Concentration 99.01 uM, Number of replicates 2.0, Standard deviation 1.1015803784116542 %); 8.09% (Thailand/16681/1984, Concentration 198.0 uM, Number of replicates 2.0, Standard deviation 1.376431104319201 %).
As to `O=Cc1ccc(N2CCC(C(=O)N3CCN(Cc4cccc(F)c4)CC3)CC2)cc1`, the inhibition under setting [1] stood at 12.4%.
For the molecule `Cc1cc(CO)c2cccc(Cc3cccc(C(=O)NCC(=O)O)c3)c2n1`, the inhibition is, setting by setting: (Thailand/16681/1984, Concentration 49.95 uM, Number of replicates 2.0, Standard deviation 0.8336363408632846 %) 63.2%; (Thailand/16681/1984, Concentration 99.9 uM, Number of replicates 2.0, Standard deviation 0.025873444538655716 %) 79.2%.
Consider `CCn1ccc2cc(CN3CCC(c4c[nH]c5cccnc45)CC3)ccc21`, for which the inhibition was -5.96% (Thailand/16681/1984, Concentration 49.5 uM, Number of replicates 2.0, Standard deviation 3.7819929973968 %); -3.96% (Thailand/16681/1984, Concentration 99.01 uM, Number of replicates 2.0, Standard deviation 3.4981517586460003 %); 1.45% (Thailand/16681/1984, Concentration 198.0 uM, Number of replicates 2.0, Standard deviation 3.018690179363585 %).
In the case of `COc1cccc(CN(C(=O)C2CCN(c3ccc(C=O)cc3)CC2)C23CC4CC(CC(C4)C2)C3)c1`, the inhibition under setting [1] was found to be 17.5%.
As to `Cc1nc(CNC(=O)C2CCN(c3ccc(C=O)cc3)CC2)nc2c1CCCC2`, the inhibition under setting [1] is 15.6%.
With `Cc1cc(CO)c2cccc(NC(=O)CN3CCOCC3)c2n1`, the inhibition (Thailand/16681/1984, Concentration 49.95 uM, Number of replicates 2.0, Standard deviation 2.1720644748171827 %) came out at 8.27% and the inhibition (Thailand/16681/1984, Concentration 99.9 uM, Number of replicates 2.0, Standard deviation 1.8504772771832996 %) stood at 15.1%.
For the molecule `Cc1nc(N)c2cccc(Cl)c2n1`, the inhibition was -8.29% (Thailand/16681/1984, Concentration 49.95 uM, Number of replicates 2.0, Standard deviation 5.075529174302592 %) and -8.87% (Thailand/16681/1984, Concentration 99.9 uM, Number of replicates 2.0, Standard deviation 2.1313934403537464 %).
Consider `CC(C)c1cc(CN2CCC3(CC2)C(=O)NCc2ccccc23)n[nH]1`, for which the inhibition amounted to 0.45% (Thailand/16681/1984, Concentration 49.5 uM, Number of replicates 2.0, Standard deviation 0.17429361371661756 %); 1.01% (Thailand/16681/1984, Concentration 99.01 uM, Number of replicates 2.0, Standard deviation 0.9779542729819841 %); 1.47% (Thailand/16681/1984, Concentration 198.0 uM, Number of replicates 2.0, Standard deviation 0.6107439126251798 %).
Turning to `Cc1cc(CN)c2cccc(Cl)c2n1`, the inhibition (Thailand/16681/1984, Concentration 49.95 uM, Number of replicates 2.0, Standard deviation 5.413623438036859 %) was -7.74% and the inhibition (Thailand/16681/1984, Concentration 99.9 uM, Number of replicates 2.0, Standard deviation 5.696602605148216 %) was -7.99%.
Consider `c1ccc2c([C@H]3CCN(Cc4ccncc4)C3)c[nH]c2c1`, for which the inhibition (Thailand/16681/1984, Concentration 49.5 uM, Number of replicates 2.0, Standard deviation 0.014090386880192304 %) is -0.355%; the inhibition (Thailand/16681/1984, Concentration 99.01 uM, Number of replicates 2.0, Standard deviation 1.2914376010247381 %) is 0.401%; the inhibition (Thailand/16681/1984, Concentration 198.0 uM, Number of replicates 2.0, Standard deviation 0.37068541016337603 %) was 3.28%.
On to `NCc1cccc(NC(=O)[C@@H](CCC(N)=O)NC(=O)OCc2ccccc2)c1`, for which the inhibition (Thailand/16681/1984, Concentration 49.5 uM, Number of replicates 2.0, Standard deviation 0.6750820884014238 %) was -3.1%; the inhibition (Thailand/16681/1984, Concentration 99.01 uM, Number of replicates 2.0, Standard deviation 2.465072002477128 %) was -1.7%; the inhibition (Thailand/16681/1984, Concentration 198.0 uM, Number of replicates 2.0, Standard deviation 2.5897319885400165 %) is -0.981%.
Regarding `Nc1ccc(N2CCN(c3cc(C(F)(F)F)nc(-c4ccccc4)n3)CC2)cn1`, the inhibition reads like this: (Thailand/16681/1984, Concentration 49.5 uM, Number of replicates 2.0, Standard deviation 0.9119763740644238 %) 3.06%; (Thailand/16681/1984, Concentration 99.01 uM, Number of replicates 2.0, Standard deviation 1.3799571096656225 %) 4.1%; (Thailand/16681/1984, Concentration 198.0 uM, Number of replicates 2.0, Standard deviation 0.8954529549868189 %) 4.98%.
Turning to `Cc1c(C(=O)NCc2nc(CN(C)C)cs2)cc(C2CC2)n1C`, the inhibition reads like this: (Thailand/16681/1984, Concentration 49.5 uM, Number of replicates 2.0, Standard deviation 0.5579625712980171 %) -6.26%; (Thailand/16681/1984, Concentration 99.01 uM, Number of replicates 2.0, Standard deviation 0.25422877869334853 %) -6.67%; (Thailand/16681/1984, Concentration 198.0 uM, Number of replicates 2.0, Standard deviation 0.6420178857446275 %) -7.02%.
With `CCn1cc(S(=O)(=O)Nc2ccc(Cl)cc2C(=O)NC)cn1`, the inhibition (Thailand/16681/1984, Concentration 49.5 uM, Number of replicates 2.0, Standard deviation 0.5029835247021022 %) is -6.21%.
Turning to `C[C@H](NC(=O)C1CCN(c2ccc(C=O)cc2)CC1)c1c(F)cccc1F`, the inhibition under setting [1] was 11.9%.
Turning to `FC(F)c1ncc(CNCc2nnc3ccccn23)s1`, the inhibition is -4.92% (Thailand/16681/1984, Concentration 49.5 uM, Number of replicates 2.0, Standard deviation 0.9081037530358488 %); -4.95% (Thailand/16681/1984, Concentration 99.01 uM, Number of replicates 2.0, Standard deviation 0.3468554134279225 %); -3.55% (Thailand/16681/1984, Concentration 198.0 uM, Number of replicates 2.0, Standard deviation 1.7848092840428398 %).
Take `CCCCCC(=O)N[C@H](C(=O)Nc1ccc2[nH]ncc2c1)c1ccc(OCc2ccccc2)cc1`: the inhibition reads like this: (Thailand/16681/1984, Concentration 49.5 uM, Number of replicates 2.0, Standard deviation 1.987384065312995 %) 0.193%; (Thailand/16681/1984, Concentration 99.01 uM, Number of replicates 2.0, Standard deviation 0.5919966150858976 %) -0.962%; (Thailand/16681/1984, Concentration 198.0 uM, Number of replicates 2.0, Standard deviation 0.13907515919188387 %) 5.05%.
Turning to `CC(F)(F)c1cc(C(=O)N2CC(NC(=O)c3ccc4[nH]ncc4c3Cl)C2)[nH]n1`, the inhibition was -0.541% (Thailand/16681/1984, Concentration 49.5 uM, Number of replicates 2.0, Standard deviation 1.1119212446710598 %); 0.751% (Thailand/16681/1984, Concentration 99.01 uM, Number of replicates 2.0, Standard deviation 1.228392627538066 %); 3.47% (Thailand/16681/1984, Concentration 198.0 uM, Number of replicates 2.0, Standard deviation 0.6727041632084392 %).
